Test results published in PubChem BioAssay AID485344 (National Center for Advancing Translational Sciences (NCATS), 2010).
In all, about 340,000 compounds went through this assay and about 6,900 (2%) were called active. Cut-off read from the data, not from the text of the source: active = inhibition above about 30%; inactive = below that, where a call was filed. The entries are a selection whose mix differs from that of the whole data set. The source gives no active or inactive call for entries shown without one.

molecular target: D(2) dopamine receptor (Homo sapiens) (UniProt P14416); experiment: HTS Assay for Allosteric Antagonists of the Human D2 Dopamine Receptor: Primary Screen for Antagonists; conditions: HEK293 TREx D2 cells, calcium flux, dopamine EC80; at 10 µM; stronger effect = higher value; note: 0% is about no effect
Method in brief: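 Compounds are added to dye-loaded, induced HEK293 T-REx cells coupled to calcium release via D2; after a 3 min kinetic read an EC80 dopamine stimulus is given and fluorescence is recorded for 3 more min.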

UniProt P14416, sequence (P14416 whole entry, looked up): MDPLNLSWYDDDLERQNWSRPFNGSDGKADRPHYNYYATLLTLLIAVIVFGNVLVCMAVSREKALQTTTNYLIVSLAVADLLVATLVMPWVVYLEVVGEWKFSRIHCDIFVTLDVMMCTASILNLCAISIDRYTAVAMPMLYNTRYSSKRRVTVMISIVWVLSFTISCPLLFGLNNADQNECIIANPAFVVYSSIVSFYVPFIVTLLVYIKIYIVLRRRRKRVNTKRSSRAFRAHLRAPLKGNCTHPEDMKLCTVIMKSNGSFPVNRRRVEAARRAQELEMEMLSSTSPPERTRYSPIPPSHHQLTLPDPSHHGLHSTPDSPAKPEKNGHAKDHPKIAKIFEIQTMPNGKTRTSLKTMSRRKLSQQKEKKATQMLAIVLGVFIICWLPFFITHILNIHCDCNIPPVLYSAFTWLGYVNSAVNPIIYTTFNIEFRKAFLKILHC

Row | Structure (SMILES) | inhibition
1 | Cc1cccc(NC(=O)c2oc3ccccc3c2NC(=O)Cc2coc3c(C)c(C)ccc23)c1 | 18.2%
2 | O=C(CCC1N=C2c3ccccc3N=C(SCc3ccc(F)cc3)N2C1=O)NCc1cccs1 (centres undefined) | -8.02%
3 | CC1=C(c2ccc(C)c(C)c2)S(=O)(=O)N(Cc2ccc(C(=O)NCc3cccc(C)c3)cc2)C1=O | 1.25%
4 | CCOC(=O)C1=C(CS(=O)(=O)c2cccc(C(F)(F)F)c2)NC(=O)NC1c1cccc(OC)c1 (centres undefined) | 5.44%
5 | CCC(C(=O)Nc1cc(Cl)ccc1OC)n1nc(-c2ccccc2)ccc1=O (centres undefined) | 3.67%
6 | CCc1ccc(OCc2n[nH]c(=S)n2C(C)CCCC(C)C)cc1 (centres undefined) | active: 47.5%
7 | Cc1ccc(Nc2c(-c3c[nH]c4ccccc34)nc3cc(C)ccn23)cc1 | -3.02%
8 | CCOc1ccccc1NC(=O)CSc1nc2c(oc3ccccc32)c(=O)n1-c1ccc(C)c(C)c1 | 3.86%
9 | COc1cc(OC)c(OC)cc1/C=C/c1nc2cc3ccccc3cc2c(=O)n1-c1ccc(Cl)cc1 | 8.07%
10 | CCOC(=O)CC(NS(=O)(=O)c1ccc2[nH]c3c(c2c1)CCCC3)c1ccccc1Cl (centres undefined) | 17.6%
11 | CC(C)OCCCNC(=O)c1ccc2c(c1)N(Cc1c(F)cccc1Cl)C(=O)c1ccccc1S2 | -8.13%
12 | COc1ccc(-c2nn3c(=O)cc(CN4CCN(C(=O)c5ccc(C(C)(C)C)cc5)CC4)nc3s2)cc1 | -9.87%
13 | Cc1ccc(Oc2c(C(F)(F)F)oc3c(CN4CCCCC4C)c(O)ccc3c2=O)cc1 (centres undefined) | -6.56%
14 | CC(=O)Nc1ccc(OC(=O)c2ccc(Br)c([N+](=O)[O-])c2)cc1 | active: 30.1%
15 | COc1ccc(C(=O)NCC(c2cccnc2)N2CCc3ccccc32)cc1 (centres undefined) | 10.3%
16 | CCOC(=O)c1c(N)n(-c2ccc(C)c(Cl)c2)c2nc3ccccc3nc12 | -5.3%
17 | CCOC(=O)c1cc(S(=O)(=O)N2CCN(c3ccccc3)CC2)[nH]n1 | -24.1%
18 | O=C(Nc1ccccc1)c1nnsc1S(=O)(=O)c1ccc(Cl)cc1 | active: 35.7%
19 | CCc1nnc2c3ccccc3nc(Nc3ccc(C(C)=O)cc3)n12 | 1.04%
20 | Cc1ccc(OC(C)C(=O)Nc2nonc2-c2ccc(Br)cc2)cc1C (centres undefined) | 11.8%
21 | O=C(Nc1c(Cl)cccc1Cl)c1cc(-c2ccc3c(c2)OCO3)on1 | 9.17%
22 | CCOC(=O)Cn1c(=O)oc2cc(S(=O)(=O)N3CCN(c4cccc(C)c4C)CC3)ccc21 | 19.2%
23 | Cc1ccc2nc(N(Cc3cccnc3)C(=O)COc3ccccc3)sc2c1 | 0.315%
24 | CCCCN(C)CCCNC(=O)C1CCN(c2nc3ccc(CC)cc3s2)CC1 | -13.9%

Row | Structure (SMILES) | inhibition
25 | CC(C)c1ccc(NC(=O)C2CCCN(S(=O)(=O)c3cccc4cccnc34)C2)cc1 (centres undefined) | -0.292%
26 | O=C(COc1ccccc1)N/N=C/c1sc(=O)n(Cc2cccc(C(=O)O)c2)c1Cl | active: 44.4%
27 | Cc1cccc(C(=O)NCCC(=O)N2CCc3ccccc3C2)c1 | active: 32.1%
28 | COC(=O)c1c(-c2ccc(Cl)cc2)noc1N1CCN(c2ccc(C)cc2C)CC1 | -4.13%
29 | CCOC(=O)Cc1ccc(NC(=O)N2CCOc3ccc(C)cc32)cc1 | -4.33%
30 | COc1ccc(OC)c(NC(=O)c2noc3c2CCCC3)c1 | -1.73%
31 | CC(=O)c1ccc(NC(=O)CCSc2nc(-c3ccco3)cc(C(F)(F)F)n2)cc1 | -2.48%
32 | Cc1c(S(=O)(=O)c2cccc(Cl)c2)nnn1-c1cccc(C(F)(F)F)c1 | -10.6%
33 | Cc1ccc(CNC(=O)C(CC(C)C)NS(=O)(=O)c2ccc3c(c2)oc(=O)n3C)cc1 (centres undefined) | -9.91%
34 | O=C(O)c1cc(-n2c(/C=C\c3ccc(F)cc3)nc3ccccc3c2=O)ccc1Cl | 21.8%
35 | O=C(NCc1ccc(Cl)cc1)c1cnc(N2CCCCC2)c2ccccc12 | 18.4%
36 | Cc1ccc(Cc2nc3ccccc3nc2SCC(=O)Nc2ccc3c(c2)OCO3)cc1 | 4.33%
37 | Cc1nc(N2CCOCC2)c2c(C(=O)Nc3cccc(C(F)(F)F)c3)c(C)oc2n1 | 3.92%
38 | Cc1ccc(S(=O)(=O)NCCS(=O)(=O)N2CCN(c3ccccc3)CC2)cc1 | 4.31%
39 | COc1ccc(CNC(=O)C2CCN(Cc3nc(-c4ccc(Cl)cc4)oc3C)CC2)cc1 | -2.5%
40 | O=C(NC1CC(=O)N(c2cccc(F)c2)C1)c1ccc(Br)o1 (centres undefined) | 15.2%
41 | CSc1ccc(CCNC(=O)CCc2c(C)nc3c(c(C)nn3-c3ccccc3)c2C)cc1 | 11%
42 | O=C(Nc1cccc(F)c1)c1ccc2snnc2c1 | 3.35%
43 | Cc1ccc(C)c(Nc2nnc(-n3nc(C)cc3C)c3ccccc23)c1 | -8.79%
44 | CCN(c1ccccc1)S(=O)(=O)c1nnc(NC(=O)c2cccs2)s1 | -20.6%
45 | Cc1ccc(-n2nc(C(=O)N3CCC(C)CC3)c(=O)n(C)c2=O)cc1 | 12%
46 | COc1cc(C(=O)Nc2ccc3nc(SCc4ccc(C)cc4)sc3c2)cc(OC)c1OC | -11.8%
47 | CCCC(=O)N1CCN(c2nc3c(OC)ccc(C)c3s2)CC1 | 15.9%
48 | CCOc1ccc(-n2c(SCC(=O)N3CCOCC3)nc3c([nH]c4ccccc43)c2=O)cc1 | 21%

Row | Structure (SMILES) | inhibition
49 | CC(C)(C)OC(=O)N1CCC(c2c(C(=O)N3CCN(C(=O)c4ccco4)CC3)cnn2-c2cccc(F)c2)CC1 | 5.57%
50 | COc1cccc(O)c1CN1CCCC(C(=O)c2cccc(C(F)(F)F)c2)C1 (centres undefined) | active: 48.6%
51 | COc1cc2[nH]c(=S)nc(NCc3ccc(C)cc3)c2cc1OC | active: 40.6%
52 | CCC(=O)NCc1cc(-c2nn(C)c(=O)c3ccccc23)ccc1OC | 13.6%
53 | Cc1ccc(C)c(NC(=O)c2ccc3nc(CCc4ccccc4)oc3c2)c1 | -3.5%
54 | O=C(CSc1n[nH]c(-c2ccccc2Cl)n1)N1CCN(c2ccccc2)CC1 | 3.24%
55 | CCOC(=O)CNS(=O)(=O)c1cc(-c2nnc(Nc3cccc(O)c3)c3ccccc23)ccc1C | -11%
56 | CCCc1ccc(C2Sc3ccccc3NC3=C2C(=O)c2ccccc23)cc1 (centres undefined) | 22.7%
57 | Cc1cc(NC(=O)c2cccs2)cc(-c2nc3cc(Cl)ccc3o2)c1O | -9.83%
58 | O=C(c1cccc(Br)c1)N1CCN(c2ccc(N3CCOCC3)nn2)CC1 | active: 32.9%
59 | Cc1ccc(NC(=O)c2ccc(=O)n(CC(=O)Nc3cccc(C)c3)n2)cc1 | 22.2%
60 | O=C(c1ccco1)[C@@H]1[C@@H]2C(=O)N(c3ccc(F)cc3)C(=O)[C@@H]2[C@H]2C=Cc3ccccc3N21 | active: 42.6%
61 | Cc1cccc(C(c2sc3nc(-c4ccco4)nn3c2O)N2CCN(c3ccccc3)CC2)c1 (centres undefined) | -21.9%
62 | CCOc1ccccc1CNS(=O)(=O)c1ccc(-c2coc(C)n2)cc1 | -6.83%
63 | COC(=O)c1ccccc1NC(=O)c1cc2nc(-c3ccc(OC)cc3)cc(C(F)(F)F)n2n1 | 2.15%
64 | Cc1ccc(NC(=O)c2ccc(NC(=O)N3CCSc4nc(C)cc(C)c43)cc2)c(Cl)c1 | 7.58%
65 | CC1CCCCN1C(=O)Cn1c(SCC(=O)N(C)c2ccccc2)nc2ccccc21 (centres undefined) | -8.69%
66 | CCn1cc(CNC(=O)c2cc(-c3ccc(C)c(C)c3)nc3ccccc23)c(C)n1 | 5.1%
67 | COc1ccc(-c2noc(CSc3nnc(-c4ccncc4)n3-c3ccc(C)cc3)n2)cc1OC | 2.87%
68 | O=C(Cn1c(=O)n(Cc2ccc3c(c2)OCO3)c(=O)c2oc3ccccc3c21)Nc1ccc(F)cc1 | -3.4%
69 | Cc1cccc(NC(=O)CCc2c(C)nc3nc(CNC(=O)c4cccc(F)c4)nn3c2C)c1 | -2.34%
70 | Cn1c(=O)c2c(ncn2CC(=O)Nc2cccc(C(F)(F)F)c2)n(C)c1=O | -4.34%
71 | COc1ccc(Cn2c(SCc3ccc(C(=O)NC4CCCC4)cc3)nc3cccnc32)cc1 | 13.7%
72 | CC(C)(C)c1ccc(-c2nc3cc(NC(=O)c4cccc(Br)c4)ccc3o2)cc1 | -2.01%

Row | Structure (SMILES) | inhibition
73 | CCc1ccc(S(=O)(=O)NCCc2csc3nc(-c4ccccc4)nn23)s1 | 19.6%
74 | COc1ccc(-n2ccn(CC(=O)NCCc3ccccc3)c(=O)c2=O)cc1OC | 19.4%
75 | COc1cccc(CNC(=O)Cn2ncc3c4ccccc4n(Cc4ccccc4)c3c2=O)c1 | 0.171%
76 | COc1ccccc1CN(Cc1ccco1)c1cnc(S(C)(=O)=O)nc1C(=O)Nc1cc(C)ccc1C | 3.51%
77 | O=C(NCCc1csc2nc(-c3ccc(F)cc3)nn12)c1cccc(C(F)(F)F)c1 | 5.25%
78 | COc1cccc(C(=O)NCc2nc(-c3ccccc3)no2)c1OC | 8.41%
79 | O=C(/C=C/c1ccc(OC(F)F)cc1)OCC(=O)N1CCC(c2ccccc2)=N1 | active: 38.6%
80 | CCOc1ccccc1NC(=O)c1c(NC(=O)c2ccccc2)sc2c1CCCC2 | 1.42%
81 | CCOc1ccccc1CNC(=O)c1cnc2sc(N3CCCCCC3)nn2c1=O | -4.88%
82 | O=C(Cn1cc(SCc2cccc(Cl)c2)c2ccccc21)N1CCCCCC1 | 6.88%
83 | Cc1ccc(S(=O)(=O)N(C)C)cc1NC(=O)COC(=O)C1CCN(S(=O)(=O)c2cccs2)CC1 | active: 35.4%
84 | COc1cc(Cl)c(C)cc1NC(=O)c1ccc2c(Cl)c3c(nc2c1)CCC3 | 3.18%
85 | CCOc1cccc(CC(=O)N2CCc3c([nH]c4ccccc34)C2c2ccc(Cl)cc2)c1OCC (centres undefined) | 13.4%
86 | CC1CCN(C(=O)CSc2nc(-c3ccccc3)no2)CC1 | 9.83%
87 | COc1cc(C(=O)N2CCC(c3nc4ccccc4o3)CC2)cc(OC)c1OC | 16.8%
88 | Cc1c(NS(=O)(=O)c2ccccc2)cc(C(C)C)c(O)c1S(=O)(=O)c1ccc(Cl)cc1 | 4.3%
89 | COc1ccc(C(c2c(O)cc(C)n(Cc3ccco3)c2=O)N2CCCCC2)cc1OC (centres undefined) | -5.58%
90 | C(=C\c1ccccc1)/CN1CCN(C(c2ccccc2)c2ccccc2)CC1 | active: 52.7%
91 | COc1ccc(CCNc2ncnc3c2cnn3-c2ccc(C)cc2)cc1 | 23.6%
92 | CN1C(=O)c2ccccc2Sc2ccc(NC(=O)COc3ccc(F)cc3)cc21 | 10.1%
93 | OC(COc1ccc(Cl)c2ccccc12)CN1CCN(c2ccccn2)CC1 (centres undefined) | active: 35.5%
94 | Cc1ccc(N2CC(C(=O)Nc3cccnc3)CC2=O)cc1C (centres undefined) | active: 31.1%
